# This is one part of the list.
# B1: PX9937F-bfa-516-16-516 (Bacteroides fragilis) (protein)
# chain: LDIDPTSSIADSNYWKTEAQFSTFNVGLHALLRECSFNFFLLGEPRADIYGDVPFGGEATQGMERLPFNTINKENTGISNFAGMYKVINQINLMIAKTKETTVLSEAGKNYYLGEAYGMRAYLYFHLLRSWGDVILYLDYTNGASLDLSNLSKAASPAEEVMKQIKEDITASEKGFGSDYSFKYGRYYWSMAATQMLKGEVYLWSGRQMGGGTADYTTAKTALQSIVSNANVSLQDDFSKVFAYNNKDNSEIIFSIRNAKDEYNMWDDRFRQNLVPQQAYMTSTYCNKEGVSFKDLPEGQLNGLIRLQIRYDLYNKAFRDGDTRKDASMTAVYQKQQDGTVKYIAPFCNKYQGVLLDGASQRSFLNDYPIYRYADCLLLLAEAKALLGEDPTAEINQVRERAYGKEFFEANKATLAYPNDKGDFYTDNKYMSGDEDPLEAILKERMREFMFEGKRWYDLRLLGADYVTKRTSAVATRLLWPINESVLTDNPALKQTPGYQN
# Tests used:
# Assay in all cases: glycan array binding signal (z-score within array); higher = stronger binding
# Conditions in all cases: glycan notation: IUPAC condensed, linker removed
# [1] = target: Gal6S(b1-4)Glc6S
# Method in brief: (§1)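 Glycan array binding is given as a within-array Z-score, which can be read as non-binding when negative. The arrays, 3228 of them, came from the Consortium for Functional Glycomics database and were retained only where the protein sequence was available. Z-scores were averaged across arrays of the same protein sequence at different concentrations or buffers and across linkers.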
# [2] = target: Gal6S(b1-4)GlcNAc
# Method in brief: as §1
# [3] = target: Gal6S(b1-4)GlcNAc6S
# Method in brief: as §1
# [4] = target: GalNAc(a1-3)Gal
# Method in brief: as §1
# [5] = target: GalNAc(a1-3)GalNAc
# Method in brief: as §1
# [6] = target: GalNAc(a1-3)GalNAc(b1-3)Gal(a1-4)Gal(b1-4)Glc
# Method in brief: as §1
# [7] = target: GalNAc(a1-3)GalNAc(b1-3)Gal(a1-4)Gal(b1-4)GlcNAc
# Method in brief: as §1
# [8] = target: GalNAc(b1-3)Gal
# Method in brief: as §1
# [9] = target: GalNAc(b1-3)Gal(a1-4)Gal(b1-4)GlcNAc
# Method in brief: as §1
# [10] = target: GalNAc(b1-3)Gal(a1-4)Gal(b1-4)GlcNAc(b1-3)Gal(b1-4)Glc
# Method in brief: as §1
# [11] = target: GalNAc(b1-3)Gal(a1-6)Gal(b1-4)Glc
# Method in brief: as §1
# [12] = target: GalNAc(b1-3)GalNAc
# Method in brief: as §1
# [13] = target: GalNAc(b1-3)GlcNAc
# Method in brief: as §1
# [14] = target: GalNAc(b1-4)Gal(b1-4)Glc
# Method in brief: as §1
# [15] = target: GalNAc(b1-4)GlcNAc
# Method in brief: as §1
# [16] = target: GalNAc(b1-4)GlcNAc(b1-2)Man
# Method in brief: as §1
# [17] = target: GalNAc(b1-4)GlcNAc(b1-2)Man(a1-3)[GalNAc(b1-4)GlcNAc(b1-2)Man(a1-6)]Man(b1-4)GlcNAc(b1-4)GlcNAc
# Method in brief: as §1
# [18] = target: GalNAc(b1-4)GlcNAc(b1-3)GalNAc(b1-4)GlcNAc
# Method in brief: as §1
# [19] = target: GalNAc(b1-4)GlcNAc6S
# Method in brief: as §1
# [20] = target: GalNAc(b1-6)GalNAc
# Method in brief: as §1
# [21] = target: GalNAc3S(b1-4)GlcNAc
# Method in brief: as §1
# [22] = target: GalNAc3S(b1-4)GlcNAc3S
# Method in brief: as §1
# [23] = target: GalNAc3S(b1-4)[Fuc(a1-3)]GlcNAc
# Method in brief: as §1
# [24] = target: GalNAc4S6S(b1-4)GlcNAc
# Method in brief: as §1
# [25] = target: GalNAc6S(b1-4)GlcNAc
# Method in brief: as §1
# [26] = target: Glc(a1-4)Glc
# Method in brief: as §1
# [27] = target: Glc(a1-4)Glc(a1-4)Glc(a1-4)Glc
# Method in brief: as §1
# [28] = target: Glc(a1-6)Glc(a1-6)Glc
# Method in brief: as §1
# [29] = target: Glc(a1-6)Glc(a1-6)Glc(a1-6)Glc
# Method in brief: as §1
# [30] = target: Glc(b1-4)Glc
# Method in brief: as §1
# [31] = target: Glc(b1-6)Glc
# Method in brief: as §1
# [32] = target: GlcA(b1-3)Gal
# Method in brief: as §1
# [33] = target: GlcA(b1-3)GlcNAc
# Method in brief: as §1
# [34] = target: GlcA(b1-6)Gal
# Method in brief: as §1
# [35] = target: GlcA3S(b1-3)Gal(b1-4)GlcNAc(b1-2)Man
# Method in brief: as §1
# [36] = target: GlcA3S(b1-3)Gal(b1-4)GlcNAc(b1-3)Gal(b1-4)Glc
# Method in brief: as §1
# [37] = target: GlcNAc(a1-3)Gal(b1-4)GlcNAc
# Method in brief: as §1
binder,measurement,setting,value
B1,glycan array binding signal (z-score),[1],0.179
same,glycan array binding signal (z-score),[2],-0.33
same,glycan array binding signal (z-score),[3],-0.177
same,glycan array binding signal (z-score),[4],0.114
same,glycan array binding signal (z-score),[5],-0.16
same,glycan array binding signal (z-score),[6],0.469
same,glycan array binding signal (z-score),[7],-0.212
same,glycan array binding signal (z-score),[8],-0.015
same,glycan array binding signal (z-score),[9],1.48
same,glycan array binding signal (z-score),[10],-0.29
same,glycan array binding signal (z-score),[11],-0.326
same,glycan array binding signal (z-score),[12],-0.374
same,glycan array binding signal (z-score),[13],-0.25
same,glycan array binding signal (z-score),[14],1.77
same,glycan array binding signal (z-score),[15],0.256
same,glycan array binding signal (z-score),[16],-0.282
same,glycan array binding signal (z-score),[17],-0.08
same,glycan array binding signal (z-score),[18],-0.204
same,glycan array binding signal (z-score),[19],0.396
same,glycan array binding signal (z-score),[20],0.011
same,glycan array binding signal (z-score),[21],0.111
same,glycan array binding signal (z-score),[22],-0.23
same,glycan array binding signal (z-score),[23],-0.062
same,glycan array binding signal (z-score),[24],-0.262
same,glycan array binding signal (z-score),[25],-0.033
same,glycan array binding signal (z-score),[26],-0.063
same,glycan array binding signal (z-score),[27],-0.25
same,glycan array binding signal (z-score),[28],-0.023
same,glycan array binding signal (z-score),[29],-0.212
same,glycan array binding signal (z-score),[30],-0.077
same,glycan array binding signal (z-score),[31],-0.126
same,glycan array binding signal (z-score),[32],-0.361
same,glycan array binding signal (z-score),[33],-0.198
same,glycan array binding signal (z-score),[34],-0.451
same,glycan array binding signal (z-score),[35],-0.366
same,glycan array binding signal (z-score),[36],0.04
same,glycan array binding signal (z-score),[37],-0.31
